Source: the supplement of paper PMC7125110
± gives the standard error. Variants at the background level are over-represented here.

B1: glmS ribozyme (parent)
chain: AUAAAAGCGCCAGAACUACAGAAAUGUAGUUGACGAGGAGGAGGUUUAUCGAAUUUUCGGCGGAUGCCUCCAAA

Assays:
Settings in all cases: with glucosamine-6-phosphate
[1] = variants of: B1; test: self-cleavage kobs at 640 uM GlcN6P; higher = faster cleavage; RNA array
How it was run: (§1)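 Weighted Michaelis–Menten fits across concentrations supplied kcat and KM, based on kobs from one- or two-exponential decay fits to normalised per-tile medians. The data came from barcoded ribozyme variants transcribed in situ by E. coli RNA polymerase on sequenced MiSeq chips and tracked at 37 °C by a hybridised Cy3 probe. Glucosamine-6-phosphate (40 μM to 10 mM) in HEPES/KCl/Mg(OAc)2 buffer was flowed in.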

[2] = variants of: B1; test: self-cleavage kobs at 2500 uM GlcN6P; higher = faster cleavage; RNA array
How it was run: as §1

[3] = variants of: B1; test: self-cleavage kobs at 10000 uM GlcN6P; higher = faster cleavage; RNA array
How it was run: as §1

[4] = variants of: B1; test: self-cleavage kobs at 160 uM GlcN6P; higher = faster cleavage; RNA array
How it was run: as §1

A15U A33G G59U
self-cleavage kobs at 640 uM GlcN6P [1]: < 1e-05 s⁻¹ | self-cleavage kobs at 2500 uM GlcN6P [2]: < 1e-05 s⁻¹

A15U A36U C67U
self-cleavage kobs at 640 uM GlcN6P [1]: < 1e-05 s⁻¹

A15U C50G G66C C71G
self-cleavage kobs at 640 uM GlcN6P [1]: 7.22e-05 ± 2.8e-05 s⁻¹ | self-cleavage kobs at 2500 uM GlcN6P [2]: 9.27e-05 ± 3e-05 s⁻¹

A15U C68G C70A
self-cleavage kobs at 640 uM GlcN6P [1]: < 1e-05 s⁻¹ | self-cleavage kobs at 10000 uM GlcN6P [3]: < 1e-05 s⁻¹

A15U G32A U46G C50G
self-cleavage kobs at 640 uM GlcN6P [1]: 8.2e-05 ± 2.3e-05 s⁻¹

A15U G32U C34U C50A
self-cleavage kobs at 640 uM GlcN6P [1]: < 1e-05 s⁻¹

A15U G32U G35C A36U
self-cleavage kobs at 640 uM GlcN6P [1]: < 1e-05 s⁻¹

A15U G35C
self-cleavage kobs at 640 uM GlcN6P [1]: < 1e-05 s⁻¹ | self-cleavage kobs at 160 uM GlcN6P [4]: < 1e-05 s⁻¹ | self-cleavage kobs at 2500 uM GlcN6P [2]: < 1e-05 s⁻¹

A15U G38A
self-cleavage kobs at 640 uM GlcN6P [1]: < 1e-05 s⁻¹ | self-cleavage kobs at 160 uM GlcN6P [4]: < 1e-05 s⁻¹ | self-cleavage kobs at 10000 uM GlcN6P [3]: < 1e-05 s⁻¹

A15U G40A A42G A64C C70G
self-cleavage kobs at 640 uM GlcN6P [1]: < 1e-05 s⁻¹ | self-cleavage kobs at 2500 uM GlcN6P [2]: < 1e-05 s⁻¹

A15U G40A U49C
self-cleavage kobs at 640 uM GlcN6P [1]: < 1e-05 s⁻¹ | self-cleavage kobs at 2500 uM GlcN6P [2]: < 1e-05 s⁻¹

A15U G40C C58A C68U C71A
self-cleavage kobs at 640 uM GlcN6P [1]: < 1e-05 s⁻¹

A15U G43A G59C
self-cleavage kobs at 640 uM GlcN6P [1]: < 1e-05 s⁻¹ | self-cleavage kobs at 2500 uM GlcN6P [2]: < 1e-05 s⁻¹ | self-cleavage kobs at 10000 uM GlcN6P [3]: < 1e-05 s⁻¹

A15U G43U C67U
self-cleavage kobs at 640 uM GlcN6P [1]: < 1e-05 s⁻¹ | self-cleavage kobs at 160 uM GlcN6P [4]: < 1e-05 s⁻¹ | self-cleavage kobs at 2500 uM GlcN6P [2]: < 1e-05 s⁻¹

A15U G51U
self-cleavage kobs at 640 uM GlcN6P [1]: < 1e-05 s⁻¹ | self-cleavage kobs at 160 uM GlcN6P [4]: < 1e-05 s⁻¹ | self-cleavage kobs at 2500 uM GlcN6P [2]: < 1e-05 s⁻¹ | self-cleavage kobs at 10000 uM GlcN6P [3]: < 1e-05 s⁻¹

A15U G63C
self-cleavage kobs at 640 uM GlcN6P [1]: < 1e-05 s⁻¹ | self-cleavage kobs at 160 uM GlcN6P [4]: < 1e-05 s⁻¹ | self-cleavage kobs at 2500 uM GlcN6P [2]: < 1e-05 s⁻¹ | self-cleavage kobs at 10000 uM GlcN6P [3]: < 1e-05 s⁻¹

A15U G66U
self-cleavage kobs at 640 uM GlcN6P [1]: 6.31e-05 ± 9.8e-06 s⁻¹

A15U U45C C50G U69G
self-cleavage kobs at 640 uM GlcN6P [1]: < 1e-05 s⁻¹ | self-cleavage kobs at 2500 uM GlcN6P [2]: < 1e-05 s⁻¹

A15U U46A
self-cleavage kobs at 640 uM GlcN6P [1]: 8.53e-05 ± 9.5e-06 s⁻¹ | self-cleavage kobs at 160 uM GlcN6P [4]: 3.16e-05 ± 1.1e-05 s⁻¹ | self-cleavage kobs at 2500 uM GlcN6P [2]: 0.000225 ± 2.3e-05 s⁻¹ | self-cleavage kobs at 10000 uM GlcN6P [3]: 0.000303 ± 3.2e-05 s⁻¹

A15U U54A
self-cleavage kobs at 640 uM GlcN6P [1]: 0.00262 ± 0.00048 s⁻¹ | self-cleavage kobs at 160 uM GlcN6P [4]: 0.00059 ± 0.00026 s⁻¹ | self-cleavage kobs at 2500 uM GlcN6P [2]: 0.00516 ± 0.0014 s⁻¹

C16A A33U G40A
self-cleavage kobs at 640 uM GlcN6P [1]: < 1e-05 s⁻¹ | self-cleavage kobs at 2500 uM GlcN6P [2]: < 1e-05 s⁻¹

C16A A36G G63U
self-cleavage kobs at 640 uM GlcN6P [1]: < 1e-05 s⁻¹ | self-cleavage kobs at 160 uM GlcN6P [4]: < 1e-05 s⁻¹ | self-cleavage kobs at 2500 uM GlcN6P [2]: < 1e-05 s⁻¹

C16A A39U G40A A53U C58U U65G
self-cleavage kobs at 640 uM GlcN6P [1]: < 1e-05 s⁻¹ | self-cleavage kobs at 2500 uM GlcN6P [2]: < 1e-05 s⁻¹

C16A A42C U55A
self-cleavage kobs at 640 uM GlcN6P [1]: < 1e-05 s⁻¹ | self-cleavage kobs at 160 uM GlcN6P [4]: < 1e-05 s⁻¹ | self-cleavage kobs at 2500 uM GlcN6P [2]: < 1e-05 s⁻¹ | self-cleavage kobs at 10000 uM GlcN6P [3]: < 1e-05 s⁻¹

C16A C34A U55C G59U G60U
self-cleavage kobs at 640 uM GlcN6P [1]: < 1e-05 s⁻¹ | self-cleavage kobs at 2500 uM GlcN6P [2]: < 1e-05 s⁻¹

C16A C34U C61G
self-cleavage kobs at 640 uM GlcN6P [1]: < 1e-05 s⁻¹ | self-cleavage kobs at 160 uM GlcN6P [4]: < 1e-05 s⁻¹ | self-cleavage kobs at 2500 uM GlcN6P [2]: < 1e-05 s⁻¹

C16A G32C U47A U56C
self-cleavage kobs at 640 uM GlcN6P [1]: < 1e-05 s⁻¹

C16A G32U G41U U55G U65G
self-cleavage kobs at 640 uM GlcN6P [1]: < 1e-05 s⁻¹ | self-cleavage kobs at 2500 uM GlcN6P [2]: < 1e-05 s⁻¹

C16A G37C G59C
self-cleavage kobs at 640 uM GlcN6P [1]: < 1e-05 s⁻¹ | self-cleavage kobs at 160 uM GlcN6P [4]: < 1e-05 s⁻¹

C16A G43A C61A
self-cleavage kobs at 640 uM GlcN6P [1]: < 1e-05 s⁻¹

C16A G51C
self-cleavage kobs at 640 uM GlcN6P [1]: < 1e-05 s⁻¹ | self-cleavage kobs at 160 uM GlcN6P [4]: < 1e-05 s⁻¹ | self-cleavage kobs at 2500 uM GlcN6P [2]: < 1e-05 s⁻¹ | self-cleavage kobs at 10000 uM GlcN6P [3]: < 1e-05 s⁻¹

C16A G63U C67U
self-cleavage kobs at 640 uM GlcN6P [1]: 0.000112 ± 4.7e-05 s⁻¹

C16A U17C G29C U31A A39C G63C C71G
self-cleavage kobs at 640 uM GlcN6P [1]: < 1e-05 s⁻¹ | self-cleavage kobs at 160 uM GlcN6P [4]: < 1e-05 s⁻¹

C16A U30A A33G
self-cleavage kobs at 640 uM GlcN6P [1]: < 1e-05 s⁻¹

C16A U31G A52C
self-cleavage kobs at 640 uM GlcN6P [1]: < 1e-05 s⁻¹ | self-cleavage kobs at 2500 uM GlcN6P [2]: < 1e-05 s⁻¹

C16A U54A C67A
self-cleavage kobs at 640 uM GlcN6P [1]: 6.57e-05 ± 2.8e-05 s⁻¹ | self-cleavage kobs at 160 uM GlcN6P [4]: 4.32e-05 ± 1.9e-05 s⁻¹ | self-cleavage kobs at 2500 uM GlcN6P [2]: 0.000181 ± 4.8e-05 s⁻¹

C16A U54C G59U
self-cleavage kobs at 640 uM GlcN6P [1]: < 1e-05 s⁻¹

C16G A33U A52U C61U C71U
self-cleavage kobs at 640 uM GlcN6P [1]: < 1e-05 s⁻¹

C16G A33U G35U G41A U45G A48G
self-cleavage kobs at 640 uM GlcN6P [1]: < 1e-05 s⁻¹ | self-cleavage kobs at 2500 uM GlcN6P [2]: < 1e-05 s⁻¹

C16G A33U G37U C68G C71U
self-cleavage kobs at 640 uM GlcN6P [1]: 8.54e-05 ± 3.1e-05 s⁻¹

C16G A33U G41C C68A
self-cleavage kobs at 640 uM GlcN6P [1]: < 1e-05 s⁻¹ | self-cleavage kobs at 2500 uM GlcN6P [2]: < 1e-05 s⁻¹

C16G A39G A64C
self-cleavage kobs at 640 uM GlcN6P [1]: < 1e-05 s⁻¹

C16G A42C A53U
self-cleavage kobs at 640 uM GlcN6P [1]: < 1e-05 s⁻¹ | self-cleavage kobs at 160 uM GlcN6P [4]: < 1e-05 s⁻¹

C16G A52C U56A
self-cleavage kobs at 640 uM GlcN6P [1]: < 1e-05 s⁻¹ | self-cleavage kobs at 160 uM GlcN6P [4]: < 1e-05 s⁻¹

C16G A52G C58G
self-cleavage kobs at 640 uM GlcN6P [1]: < 1e-05 s⁻¹

C16G C34A G62U
self-cleavage kobs at 640 uM GlcN6P [1]: < 1e-05 s⁻¹ | self-cleavage kobs at 2500 uM GlcN6P [2]: < 1e-05 s⁻¹ | self-cleavage kobs at 10000 uM GlcN6P [3]: < 1e-05 s⁻¹

C16G G29A U65C C68A
self-cleavage kobs at 640 uM GlcN6P [1]: < 1e-05 s⁻¹

C16G G29U G44U C61G
self-cleavage kobs at 640 uM GlcN6P [1]: < 1e-05 s⁻¹ | self-cleavage kobs at 2500 uM GlcN6P [2]: < 1e-05 s⁻¹

C16G G35C A48G U57C G62A C67A U69A
self-cleavage kobs at 640 uM GlcN6P [1]: < 1e-05 s⁻¹ | self-cleavage kobs at 2500 uM GlcN6P [2]: < 1e-05 s⁻¹ | self-cleavage kobs at 10000 uM GlcN6P [3]: < 1e-05 s⁻¹

C16G G51U G60C
self-cleavage kobs at 640 uM GlcN6P [1]: < 1e-05 s⁻¹ | self-cleavage kobs at 160 uM GlcN6P [4]: < 1e-05 s⁻¹ | self-cleavage kobs at 2500 uM GlcN6P [2]: < 1e-05 s⁻¹

C16G G59A
self-cleavage kobs at 640 uM GlcN6P [1]: < 1e-05 s⁻¹

C16G U30A
self-cleavage kobs at 640 uM GlcN6P [1]: 0.00012 ± 2.3e-05 s⁻¹ | self-cleavage kobs at 160 uM GlcN6P [4]: 3.9e-05 ± 1.2e-05 s⁻¹ | self-cleavage kobs at 2500 uM GlcN6P [2]: 0.000313 ± 6.1e-05 s⁻¹ | self-cleavage kobs at 10000 uM GlcN6P [3]: 0.000372 ± 9.2e-05 s⁻¹

C16G U30A A42U
self-cleavage kobs at 640 uM GlcN6P [1]: < 1e-05 s⁻¹

C16G U31C
self-cleavage kobs at 640 uM GlcN6P [1]: 8.88e-05 ± 1.7e-05 s⁻¹ | self-cleavage kobs at 2500 uM GlcN6P [2]: 0.000269 ± 4.6e-05 s⁻¹ | self-cleavage kobs at 10000 uM GlcN6P [3]: 0.000401 ± 0.00011 s⁻¹

C16G U31C A48G U65G
self-cleavage kobs at 640 uM GlcN6P [1]: < 1e-05 s⁻¹

C16G U45A C58A
self-cleavage kobs at 640 uM GlcN6P [1]: 6.95e-05 ± 1.6e-05 s⁻¹ | self-cleavage kobs at 2500 uM GlcN6P [2]: 0.000197 ± 3.9e-05 s⁻¹
